Drawing on the supplement of paper PMC9446081, this text covers relative growth for 17 molecules.

Each structure is given as a SMILES string. The whole screen tested about 39,000 compounds, of which about 220 (0.56%) showed activity. The list shows a part of the results.
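Further: static incubation at 37 °C against the wild-type strain, values averaged over two biological replicates.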

The assay deals with Escherichia coli K-12 BW25113. The assay is described as follows: relative growth (OD600 normalised to plate interquartile mean) (fraction); higher = less growth inhibition, active = 0.2 or less. The conditions noted are these: 50 µM; LB; incubation time: overnight (16-24 h).
As for `C[C@@H]1CN([C@H](C)CO)C(=O)c2cc(NC(=O)Nc3ccc(F)cc3)ccc2O[C@@H](C)CCCCO[C@@H]1CN(C)C(=O)CCCN(C)C`, the relative growth was inactive: 0.979. As for `CC(C)NC(=O)Nc1ccc2c(c1)C(=O)N([C@H](C)CO)C[C@@H](C)[C@@H](CN(C)Cc1ccc(C(F)(F)F)cc1)OCCCC[C@@H](C)O2`, the figure is inactive: 0.976. As for `C[C@H]1CN([C@@H](C)CO)C(=O)c2cc(C3=CCCC3)cnc2O[C@H]1CN(C)C(=O)Nc1ccc(C(F)(F)F)cc1`, the figure is inactive: 1.02. As for `Cc1noc(C)c1NC(=O)Nc1ccc2c(c1)C(=O)N([C@@H](C)CO)C[C@@H](C)[C@@H](CN(C)Cc1ccncc1)OCCCC[C@@H](C)O2`, the figure is inactive: 1.01; as for `C[C@H](CO)N1C[C@H](C)[C@@H](CN(C)Cc2ccc(Cl)c(Cl)c2)Oc2ccc(NC(=O)CCC(F)(F)F)cc2C1=O`, inactive: 0.982; as for `CO[C@H]1CN(C)C(=O)c2cc(NC(=O)Nc3cccc(Cl)c3)ccc2OC[C@@H](C)N(C(=O)Nc2c(C)noc2C)C[C@H]1C`, inactive: 0.99. Consider `COc1ccc(S(=O)(=O)N(C)C[C@H]2Oc3ccc(NC(=O)CCN4CCOCC4)cc3C(=O)N([C@H](C)CO)C[C@H]2C)cc1`, for which the relative growth was inactive: 1.

With `C[C@H]1CN([C@@H](C)CO)C(=O)Cc2cc(NS(C)(=O)=O)ccc2O[C@@H]1CN(C)Cc1ccc(C(=O)O)cc1`, the relative growth is inactive: 0.994. As for `CCOC(=O)[C@H](Cc1c[nH]c2ccccc12)NC(=O)Cn1cc(C(=O)NO)nn1`, the figure is inactive: 0.968; as for `COc1ccc2c3c(n(c2c1)C)[C@@H](CO)N(C[C@]13CN(C1)S(=O)(=O)c1cn(cn1)C)C(=O)Nc1ccc(cc1)F`, inactive: 0.998; as for `Cc1noc(C)c1S(=O)(=O)N(C)C[C@H]1Oc2ccc(NS(=O)(=O)c3ccc(F)cc3)cc2C(=O)N([C@H](C)CO)C[C@H]1C`, inactive: 0.973. With `C[C@H](CO)N1C[C@H](C)[C@H](CN(C)Cc2ccc(-c3ccccc3)cc2)Oc2ccc(NS(=O)(=O)c3ccccc3)cc2C1=O`, the relative growth was inactive: 0.985. As for `C[C@@H]1CCCCO[C@@H](CN(C)Cc2ccc(C(F)(F)F)cc2)[C@@H](C)CN([C@@H](C)CO)C(=O)c2cc(NC(=O)Nc3ccc(F)cc3)ccc2O1`, the figure is inactive: 1.02; as for `CC(C)(CO)[C@@H](O)C(=O)NCCCO`, inactive: 1.01. For the molecule `COC(=O)c1c(N)c(C#N)c2n1CCC2`, the relative growth is inactive: 0.983. For `Cc1nc(C2C(=N)N([C@H]3CS(=O)(=O)C[C@@H]3O)CC2=O)sc1C` (some centres not stated), the relative growth was inactive: 1.01. As for `C[C@H](CO)N1C[C@H](C)[C@H](CN(C)C(=O)Nc2cccc(Cl)c2Cl)OCc2ccccc2-c2ccccc2C1=O`, the figure is inactive: 0.995.
